Experimental data reported in PubChem BioAssay (Tox21).
“And” between values parts separate entries of the source, which are not always exact repeats. Equal values may be shown once. Inconclusive results, whose numbers are uncertain, are shown with a selection of clear calls. For some of these results: Potencies beside an inconclusive call are fits to weak or partial responses and may not hold up. A structure can be active in one record and inactive in another. The source made the active and inactive calls. Unless noted, the call rests on the fitted dose curve; in most records, active means well fitted curve in the direction sought with a large enough effect in the repeat runs; inconclusive means weak or mixed curves; inactive means no such curve, though single readings can be large; an effect the other way counts as inactive or inconclusive.

How the values were obtained:
[1] = qHTS assay for small molecules that induce genotoxicity in human embryonic kidney cells expressing luciferase-tagged ATAD5 (AID 651632); details: HEK293T ATAD5-luciferase induction, 16 h; series mostly up to 83.3 µM; further: nearly all actives have a fitted effect of over 15% in size; on activation: on the % scale 0 is the no-effect control and ±100 the full control effect
Procedure, shortened: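 Reporter cells (HEK293T) express luciferase-tagged ATAD5, a protein that accumulates after DNA damage. Treat 16 hr at 37C/5% CO2, add Amplite, wait 30 min at RT, and read luminescence.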

[2] = qHTS assay for small molecule agonists of the p53 signaling pathway - cell viability (AID 651633; calls by dose curve; further: nearly all actives have a fitted effect of over 30% in size); details: p53RE-bla HCT-116 viability, ATP luminescence, 16 h; series mostly up to 83.3 µM
Procedure, shortened: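 Viability counter-read: CellTiter-Glo luminescence (30 min, room temperature) in the same p53RE-bla plates. These plates had been exposed to compounds for 16 h at 37 C.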

[3] = qHTS assay for small molecule disruptors of the mitochondrial membrane potential - cell viability (AID 720634; calls by dose curve; further: nearly all actives have a fitted effect of over 20% in size); details: HepG2 viability, ATP luminescence (CellTiter-Glo), 1 h; series mostly up to 83.2 µM
Procedure, shortened: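 Measuring cytotoxicity alongside mitochondrial potential, the screen quantified ATP by luminescence in HepG2 cells after 1 hr compound incubation and a 30 min room-temperature CellTiter-Glo step.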

[4] = biological target: Glucocorticoid receptor (Homo sapiens) (UniProt P04150); assay: qHTS assay to identify small molecule agonists of the glucocorticoid receptor (GR) signaling pathway (AID 720691; active means well fitted activation curve with a large enough effect in the signal ratio in the repeat runs, not every such curve was filed as active; inconclusive means weak or mixed curves, or effect the other way; inactive means no such curve, though single readings can be large or run the other way; the % refers to the signal ratio; on activation: on the % scale 0 is the no-effect control and ±100 the full control effect); details: GR-bla HeLa, beta-lactamase reporter ratio, 18 h; activation: at 62.4 µM (top of the series) unless noted
Chain of UniProt P04150 (P04150 whole entry, looked up): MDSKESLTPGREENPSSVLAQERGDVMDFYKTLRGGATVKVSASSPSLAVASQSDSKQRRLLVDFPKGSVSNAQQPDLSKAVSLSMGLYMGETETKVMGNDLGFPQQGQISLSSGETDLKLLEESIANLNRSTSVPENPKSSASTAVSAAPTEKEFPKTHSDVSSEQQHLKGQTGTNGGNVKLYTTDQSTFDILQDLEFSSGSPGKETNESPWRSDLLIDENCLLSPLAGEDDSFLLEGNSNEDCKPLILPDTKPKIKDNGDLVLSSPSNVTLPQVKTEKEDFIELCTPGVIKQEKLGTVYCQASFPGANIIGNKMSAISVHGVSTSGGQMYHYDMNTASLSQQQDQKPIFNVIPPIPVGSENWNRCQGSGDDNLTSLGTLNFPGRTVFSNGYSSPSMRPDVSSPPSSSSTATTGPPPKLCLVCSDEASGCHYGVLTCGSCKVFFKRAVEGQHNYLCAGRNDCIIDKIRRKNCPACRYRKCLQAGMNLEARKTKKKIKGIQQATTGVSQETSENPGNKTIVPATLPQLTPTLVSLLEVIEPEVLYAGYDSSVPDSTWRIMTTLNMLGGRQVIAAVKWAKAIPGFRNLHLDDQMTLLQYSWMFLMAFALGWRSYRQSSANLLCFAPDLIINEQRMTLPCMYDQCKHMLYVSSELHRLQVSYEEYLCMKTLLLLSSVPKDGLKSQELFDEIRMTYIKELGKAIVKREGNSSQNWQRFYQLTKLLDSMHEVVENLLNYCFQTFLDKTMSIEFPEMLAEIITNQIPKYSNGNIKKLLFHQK
Procedure, shortened: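 Reporter read-out: fluorescence intensity following 2 h room-temperature LiveBLAzer B/G FRET substrate loading. Prior step: GR-bla HeLa cells held 4 h, then treated 18 h at 37 C.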

[5] = qHTS assay to identify small molecule antagonists of the glucocorticoid receptor (GR) signaling pathway - cell viability counter screen (AID 720693); details: GR-bla HeLa viability, CellTiter-Glo luminescence, 18 h, with 5 nM dexamethasone present; viability change, negative = cytotoxic: at 58.5 µM (top of the series); further: nearly all actives have a fitted effect of over 55% in size
[6] = qHTS assay for small molecule disruptors of the mitochondrial membrane potential (AID 720635); details: HepG2 mitochondrial membrane potential, Mito-MPS dye ratio; ratio activity, negative = MMP loss: at 83.2 µM (top of the series) unless noted; on ratio activity, negative = MMP loss: on the % scale 0 is the no-effect control and ±100 the full control effect
Procedure, shortened: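 Mitochondrial membrane potential tracked with Mito-MPS dye, red aggregates (ex 540/em 590 nm) against green monomers (ex 490/em 535 nm). Compound treatment 1 hr at 37C, dye 30 min in HepG2.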

[7] = biological target: Glucocorticoid receptor (Homo sapiens) (UniProt P04150); assay: qHTS assay to identify small molecule antagonists of the glucocorticoid receptor (GR) signaling pathway (AID 720692; active means well fitted inhibition curve with a large enough effect in the signal ratio in the repeat runs, not every such curve was filed as active; inconclusive means weak or mixed curves, or effect the other way; inactive means no such curve, though single readings can be large or run the other way; the % refers to the signal ratio); details: GR-bla HeLa, beta-lactamase FRET ratio, dexamethasone-stimulated, 18 h; for Potency: activity change, negative = inhibition: at 58.5 µM (top of the series) unless noted
Procedure, shortened: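 Dexamethasone (5 nM final) stimulated a stably integrated GRE-beta-lactamase reporter in HeLa cells during 18 h co-incubation with compounds; signal was quantified as fluorescence intensity of B/G FRET substrate after 2 h.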

[8] = qHTS assay for identifying genotoxic compounds that show differential cytotoxicity against isogenic chicken DT40 cell lines with known DNA damage response pathways - wild type cell line (AID 743012); details: DT40 wild type chicken cells viability, CellTiter-Glo, 40 h; activity change, negative = cytotoxicity: at 68.4 µM (top of the series); further: nearly all actives have a fitted effect of over 60% in size
Procedure, shortened: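 Using parental DT40 (300 cells/well), compounds delivered in DMSO incubate 40 h at 37 C/5% CO2. CellTiter-Glo reagent then stands 30 min at room temperature, and luminescence gives cell viability.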

[9] = qHTS assay for small molecule agonists of the p53 signaling pathway (AID 651631; calls by dose curve; further: nearly all actives have a fitted effect of over 15% in size; on activation: on the % scale 0 is the no-effect control and ±100 the full control effect); details: HCT-116 p53RE-bla reporter, beta-lactamase FRET ratio, 16 h; activation: at 73.3 µM (top of the series) unless noted
Procedure, shortened: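 Quantitative high-throughput format: 4,000 p53RE-bla HCT-116 cells/well, 5 h pre-incubation, 16 h compound exposure at 37 °C, 2 h room-temperature substrate step, fluorescence intensity measured.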
Potency means the concentration at half of the fitted maximal effect; tags describe the fitted curve by direction and shape or compound fluorescence and quenching.

For `CCCCC(CC)COC(=O)CC(C(=O)OCC(CC)CCCC)S(=O)(=O)O` (centres undefined), the Potency [1] was inconclusive: 68.6 µM [activator, partial curve, poor fit], the Potency [2] was active: 58.8 µM [middle of 4 runs] and the Potency [3] was inconclusive: 58.8 µM [cytotoxic]. The Potency [4] was inconclusive: 52.9 µM [cytotoxic] and inconclusive: 54.9 µM [cytotoxic] and the Potency [5] was inconclusive: 23.9 µM [cytotoxic, single point] and inconclusive: 59.3 µM [cytotoxic] and inconclusive: 54.9 µM [cytotoxic, single point].
With `N#Cc1nc(Cl)c(Cl)c(Cl)c1Cl` the Potency [1] was active: 4.86 µM, the Potency [6] was inconclusive: 30.6 µM [rising, partial curve, poor fit] and the Potency [4] was inconclusive: 19.5 µM [falling, partial curve]. For the same compound, the Potency [7] was active: 1.23 µM, the Potency [5] was active: 19.5 µM and the Potency [8] was active: 1.54 µM.
In the case of `CCCCCCCO`, the Potency [1] is reported as “inactive”, the Potency [6] is reported as “inactive” and the Potency [4] is reported as “inactive”.
For `CC(C)(C)CC(C)(C)c1ccc(OCCOCC[N+](C)(C)Cc2ccccc2)cc1`, the Potency [9] was inconclusive: 29.8 µM [cytotoxic, partial curve] and inconclusive: 61.1 µM [cytotoxic, partial curve], the Potency [6] was active: 11.9 µM and active: 21.7 µM and the Potency [5] was inconclusive: 26.8 µM [cytotoxic, single point] and active: 19.5 µM. For the same compound, the Potency [8] was active: 668 nM and active: 1.53 µM.
For `OCCO`, the Potency [9] was “inactive” and the Potency [8] was “inactive”.
For `CCc1cc(SCc2sc(-c3ccc(C(F)(F)F)cc3)nc2CN2CCN(c3ccc(OC)cc3)CC2)ccc1OCC(=O)O`, the Potency [9] was inconclusive: 17.2 µM [cytotoxic, full curve], the Potency [7] was inconclusive: 61.6 µM [cytotoxic, single point] and the Potency [5] was active: 49 µM.
With `CN(C)C(=S)SC(=S)N(C)C` the Potency [1] was inconclusive: 61.1 µM [activator, partial curve, poor fit], the Potency [2] was active: 243 nM and the Potency [6] was active: 2.98 µM and active: 28 µM and active: 61.1 µM. The Potency [7] was inconclusive: 0.309 µM [activator, full curve, poor fit], the activity change, negative = inhibition ([7]; at 58.5 µM (top of the series)) was inconclusive: 10.5% and the activity change, negative = inhibition ([7]; at 78.9 µM (top of the series)) was inconclusive: 0.567%.
With `O=C1OC(=O)c2cc(-c3ccc4c(c3)C(=O)OC4=O)ccc21` the Potency [9] was “inactive”, the ratio activity, negative = MMP loss [6] was inconclusive: 7.93% and the Potency [7] was inconclusive: 61.6 µM [activator, single point].
In the case of `O=C(OCC1CCC2OC2C1)C1CCC2OC2C1` (centres undefined), the Potency [9] is reported as inconclusive: 0.243 µM [activator, single point] and the Potency [7] is reported as “inactive”.
